# According to the supplement of paper PMC11417369:
# The other results are listed elsewhere or left out.
# Test system: PfSIP2 AP2 domain 1 (GST-tagged)
# Assay: gcPBM binding intensity (ln(normalized median fluorescence intensity)); higher = stronger DNA binding
# Procedure, shortened: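 Using an Agilent 4 × 180k array, primer-extended double-stranded 36-bp intergenic genomic probes and negative controls were exposed for 1 h to GST-fused P. falciparum DNA-binding domains expressed in E. coli. Binding was carried out in 1× PBS with 1% milk, 0.2 mg/ml BSA, 0.5% salmon testes DNA and 0.03% Triton X-100, and protein was detected with Alexa488 anti-GST antibody and a 488 nm scan. Binding intensity is the highest Masliner-normalised natural-log median intensity across replicate spots of either probe orientation.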
row,Sequence,gcPBM binding intensity (ln)
1,TTTTTCCAATCAGATGCATGTTACTATATTTGGTTC [TGCATGCA_site52],6.9
2,CACCTCAATATTCACATACACACAATATCATCGAAG [CACACA_site1675],7.33
3,TGTATAAGGTTTTTACGTTTTGAAGGATGTATTGTT [CACACA_negctrl_site1245],7
4,CGTAGCCGCACTAACACACACAAATATACGCAATCA [CACACA_site2898],7.64
5,AAAAAAAAAAAAAATAATAAATAAATAAATAAATAA [GTGCAC_negctrl_site505],7.38
6,AAAAATAAAAAAAAATTAAAATATATATATTTTGTT [TGCATGCA_negctrl_site102],6.79
7,AACATATTTATATACACACACATATTTATATGAAAT [CACACA_site6268],7.2
8,GAGAGGATACATACATGTACATAAATATTTTATTTT [XGTACX_site5129],7.06
9,AGGAAAAAAAGTAGCACACAAATATTTATAATATAT [CACACA_site2437],7
10,ATATTTTGGGTGTTGTTTTTTTTTAAAACTCTTTAA [CACACA_negctrl_site1255],7.14
11,ATTAGTTTATATGAATGATTTTTCTTTTTTTTTTTT [CACACA_negctrl_site88],6.75
12,TTACTATTTCACTGTGCATGCAACAAAAATCTATCT [TGCATGCA_site808],8.34
13,TTTGATTTTAATGTGTGTACACATTTATTTATATAA [XGTACX_site4806],7.74
14,GATTTATATTTTAAAAGTACAAGTTAAAATAAAAGT [XGTACX_site7059],7.7
15,AATATAAGATTATTATGTACATAATAAATATGTATT [XGTACX_site4773],6.84
16,ATATAAGTATAATTATGTACTTATACTTATATAAAT [XGTACX_site5585],7.02
17,ATATAATATCTGTATACACACATATTATATAATATT [CACACA_site5940],6.93
18,TTTTTTTTTTTGGTTACACACATTTGTATATTCTCA [CACACA_site134],7.05
19,CATATTAATACAGAATGTACGGATAACAAACTGTTT [XGTACX_site7935],6.8
20,ATAATTATATGATGAGTGCACAATAAAAATATCGTT [GTGCAC_site9920],10.7
21,GGTCATCATCGGTATTGTACAAAAATGTGAAAATTA [XGTACX_site639],7.59
22,TTTTATTTAGGAGGTGCATGTAATACGGAACATAAT [TGCATGCA_site827],11.2

row,Sequence,gcPBM binding intensity (ln)
1,CCATAACTCCTATGCACACATAAATATTACAGAGAT [CACACA_site5984],7.54
2,CATATAATAAATAATACACACATATTGGAAATATAT [CACACA_site3212],6.97
3,TTTATTTATTTATATTTTTTTATATAATTTATATAT [GTGCAC_negctrl_site301],6.8
4,AAAGGTATATATGTGTGTACATATATATATATATAT [XGTACX_site5629],8.98
5,TTTTGAGAAAAAATAAAATAATAAATAAAAATACAT [XGTACX_negctrl_site66],7.14
6,AATACAATTGAAAATTGTACTTTGTTTTTTATAAAT [XGTACX_site4080],6.7
7,CACATTTCTGTAGTTGCATGTAGAAAAAAAAAAAAA [TGCATGCA_site810],7.19
8,TACACAAACAGACACACACACACACGCGCACAAAAA [CACACA_site7192],7.36
9,ATTACATGTATACATGTCAACACGTATAAAAAAAAA [CACACA_negctrl_site1154],7.06
10,ATTATAAATATATTTTGTACTTAAAAGGAAAAAAAA [XGTACX_site55],6.97
11,AATAAGCATAGACACACACACAAAAAAAAAAAAAAA [CACACA_site6476],7.01
12,GATTATCTTCAAGTATGTACACACTATATATAATAA [XGTACX_site5108],7.49
13,AATAAATAGAGGAAATGTACATATAAAAATAATTTC [XGTACX_site2454],6.93
14,TTAACATCTTCGTTGACACACAAAAAAAAAAATAAT [CACACA_site1819],7.1
15,GCACGAAACAATGTATATATATATATATATATATAT [GTGCAC_negctrl_site412],9.78
16,TTCTTTATGGAAGTGTAAAAAAAGAAATACTTTTTT [CACACA_negctrl_site915],6.76
17,ATATAACAGAAACACACACACATATATATATATTAT [CACACA_site4140],7.31
18,TATTTTTATATATAATCACACATTGGAATGTTCTAA [CACACA_site5540],7.03
19,ATAAATGATAGTAAAAGTACACAAAATGTTTTAAAA [XGTACX_site1623],6.91
20,CCTTTTTCTAATGGATGTACTTATTATATACATTAT [XGTACX_site281],7.14
21,AAGAAAAGTAAATATGCATGTAGGGTAGGTTATTTT [TGCATGCA_site46],7.1
22,TATATATATCTGTATACACACATATGTATGTTATGT [CACACA_site6090],7.36

row,Sequence,gcPBM binding intensity (ln)
1,ATATTTTTTCTGAACGGTACAGAATTTTTCAAGATT [XGTACX_site484],6.97
2,AAATTTATATATAGTTGTACAAAAATATGTTTCGTA [XGTACX_site4801],6.97
3,TTATTTTATCACACATGTACATATGTTAATTTTTTT [XGTACX_site5598],7.17
4,TGAATAATCAATAGTACACACATATAAATATATATA [CACACA_site2813],7.28
5,AAAATAAAAAGAAATAAATTAACAGTAAGGAAAAAA [CACACA_negctrl_site1105],7
6,AACATTTATATTTAAGTGCAGATGCTGTAATTTAGA,7.44
7,TTTTTATAACAAAGTATTTAAATAATTTATACTAAT [TGCATGCA_negctrl_site104],6.89
8,GAACAAATTACAAGTTGTACTTTATGTAAATTATTA [XGTACX_site5304],6.76
9,ATGCGTTCATACATACATACATACATACAATTTGTA [TGCATGCA_negctrl_site50],7.11
10,TAATTCATCCTATGCACACACAATACCAAAATGTGC [CACACA_site4269],7.26
11,TAATTTATTAATAATTGTACAGATATTATACTTAAA [XGTACX_site8947],6.83
12,TTTTGAATTAAACAAGCATGCTTTATTTACTTCTTA [TGCATGCA_site289],6.61
13,TGCTCATGAGGTCAGAGTACAAAATAGTAAATGTAT [XGTACX_site2973],6.93
14,TTTATTTTTATTTTTGTGCACGGGATTAAATAAAAG [GTGCAC_site9842],10.5
15,TTTTTTTTTTTTTTTCTTTTTTATTCTCACAAAAAA [CACACA_negctrl_site1790],6.87
16,TATATATACTTAGAAACACACAAAAATATTTTATAA [CACACA_site2578],6.91
17,TAATTAGTTTTTACTTTTTTTTTTTTTTTTCTATAT [CACACA_negctrl_site1024],6.77
18,TTATGTATATTATAAATTAATACCTTTAAATTAATA [CACACA_negctrl_site67],6.78
19,ATAATCCTGAAACACACACACACACCCATAAATAAA [CACACA_site481],7.1
20,TATAACTTATTTTTTAGTACATATTATAGTTCATTT [XGTACX_site8649],6.89
21,TAAAAGGAGACATATACACACATATATATATATATA [CACACA_site5539],9.31
22,ATTCCTCATTAATATTCTTATTTTTTAATTCACATT [XGTACX_negctrl_site329],7.08

row,Sequence,gcPBM binding intensity (ln)
1,TTTATTTAAAATAAGTGTACTAGAAAAATTAAGCAG [XGTACX_site4982],7.46
2,TGTGATTATGATAAAAGTACAGAAATAAATATACTA [XGTACX_site38],6.99
3,ATAAAAAGCTAAAAAGTGCAAAAAGTAAATATTTAA,8.14
4,TTTTATAAAGAACACAGACACACAAAGAAAGAACCA [CACACA_site4174],7.33
5,ACCAATTTGACAAACTGTACAAAAAAAATATTAAAA [XGTACX_site1186],6.99
6,TACACAAAAATAAACACACACACATATATATATATA [CACACA_site1000],9.64
7,TATATATTCCTCCATAGTACAATAATAAAGATAAAA [XGTACX_site5785],7.1
8,CTTTCCCTATATTGCTGTACATGTATTCAAAAAACA [XGTACX_site353],7.46
9,CGCGAACATACATACACACACATATATATATCTGTA [CACACA_site4277],6.9
10,AACACCCAAAAACACACACACATACATACATACATA [CACACA_site4411],7.34
11,AACATTAATTTCCTATGTACTTAATATATTGTTTTT [XGTACX_site4440],7.11
12,ATTTATATATATGTATGTACGTATGTGTGTATATGT [XGTACX_site7587],7.73
13,AAATGTGTTAATGTGCGTACACATATATATAATATT [XGTACX_site2792],7.38
14,ATCACTAATTTTTTTACACACCACAATTTAATTTTT [CACACA_site1186],7.17
15,AATATATACACATGCGCACACACAAGTGGGAAATTT [CACACA_site8527],7.3
16,TTTATATTTCATTTGTTATTTTTCTTGGTTCTATAT [TGCATGCA_negctrl_site23],6.83
17,TTTTTTTTTTTTTTTTTTATATTTCATAATTTCATT [XGTACX_negctrl_site579],7.22
18,TCATTTAAGTCATATTGAAATATGCATTATTCAAAA [CACACA_negctrl_site958],6.72
19,TTTTGCCTGAACAATGCATGTTATTTTTATTTTTTT [TGCATGCA_site673],6.9
20,AATATACGATTGTCATTCATACATTGTTAACATAGT [CACACA_negctrl_site1151],6.99
21,ATATACAGAAAAAATTAAAATAAATATGCAAAACAA [CACACA_negctrl_site704],7.2
